# According to article PMC7363153, “Disassembly of Tau fibrils by the human Hsp70 disaggregation machinery generates small seeding-competent species” (The Journal of Biological Chemistry, 2020):
# Molecular target: the molecule itself
# Assay: fibril assembly shown by sedimentation (centrifugation) + negative-stain EM; 40 uM Tau with 10 uM heparin, 37 °C, shaking at 600 rpm for 4 days; assembly checked by centrifugation at 113,000 x g (35 min, 20 °C) and negative-stain TEM; untreated fibrils (2 uM) also spun at 20,000 x g in the sedimentation assay
# 1N3R Tau, sequence (P10636 other isoform, or with tags, fused parts or gaps binds): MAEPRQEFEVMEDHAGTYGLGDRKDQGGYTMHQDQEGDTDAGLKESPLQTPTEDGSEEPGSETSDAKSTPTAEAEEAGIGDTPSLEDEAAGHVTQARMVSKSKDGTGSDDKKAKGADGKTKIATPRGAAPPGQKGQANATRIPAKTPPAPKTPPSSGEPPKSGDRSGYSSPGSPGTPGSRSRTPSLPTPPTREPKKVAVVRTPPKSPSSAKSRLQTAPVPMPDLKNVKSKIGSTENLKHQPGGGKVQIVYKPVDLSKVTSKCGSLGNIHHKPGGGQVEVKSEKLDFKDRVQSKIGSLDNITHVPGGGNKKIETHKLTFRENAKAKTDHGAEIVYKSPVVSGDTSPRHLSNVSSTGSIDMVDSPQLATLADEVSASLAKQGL
protein,measurement,value
"1N3R Tau (natural protein, Used as monomer or as fibrils assembled at 40 uM with 10 uM heparin; also called recombinant 1N3R Tau) not shown",binding result,binds
